Results are given in words; binding and its absence hold for the method and conditions named. Binding seen in cells or lysates may run through a third protein. Some binding calls cover weakened binding; strength is not graded here.
What was measured:
[1] = molecular target: myc-tagged WT CSB (Cockayne syndrome group B protein), ectopically expressed (human) (UniProt Q03468); assay: co-IP; chromatin co-IP: chromatin fraction solubilised in EBC-150 buffer with Universal nuclease, NaCl adjusted to 300 mM; primary antibody overnight, Protein G agarose; washed 5 times with EBC-300 buffer; with or without UV
[2] = molecular target: CSB (Cockayne syndrome group B protein), endogenous in HeLa cells (human (endogenous in HeLa)) (UniProt Q03468); assay: proximity ligation; Duolink In Situ Red kit on fixed, permeabilised HeLa cells (WT, DJ2^-/-), with or without UV (20 J/m^2), fixed 1.5 h after; CSB^-/- cells as negative control
[3] = molecular target: myc-tagged WT CSB (Cockayne syndrome group B protein), ectopically expressed (human) (UniProt Q03468); assay: co-IP; whole-cell lysates of HeLa cells (CSB^-/- cells expressing CSB, AA-CSB or CSB (K205R); WT and DJ2^-/- cells), with or without UV (20 J/m^2), harvested 1.5 h after; lysis in 50 mM Tris-HCl pH 7.4, 150 mM NaCl, 1% NP-40, 1 mM EDTA, 1% sodium deoxycholate; primary antibody (anti-CSB) overnight, Protein G agarose; washes with 150, 300 and 450 mM NaCl; Western blot
[4] = molecular target: CSB (K205R), myc-tagged (human) (UniProt Q03468); assay: as above
[5] = molecular target: CSB (Cockayne syndrome group B protein), endogenous in HeLa cells (human (endogenous in HeLa)) (UniProt Q03468); assay: condition: only cells treated with 40 uM of the sumoylation inhibitor 2-D08; proximity ligation; Duolink PLA on HeLa cells pre-treated with 40 uM of the sumoylation inhibitor 2-D08 for 6 h before UV (20 J/m^2), cultured 1.5 h more with 2-D08
[6] = molecular target: CSB (Cockayne syndrome group B protein), endogenous in HeLa cells (human (endogenous in HeLa)) (UniProt Q03468); assay: co-IP; whole-cell lysates of HeLa cells (CSB^-/- cells expressing CSB, AA-CSB or CSB (K205R); WT and DJ2^-/- cells), with or without UV (20 J/m^2), harvested 1.5 h after; lysis in 50 mM Tris-HCl pH 7.4, 150 mM NaCl, 1% NP-40, 1 mM EDTA, 1% sodium deoxycholate; primary antibody (anti-CSB) overnight, Protein G agarose; washes with 150, 300 and 450 mM NaCl; Western blot

Sequences of proteins named here, by UniProt entry; tags and fusion partners are left off. A change or cut given only in a name is not applied to a line headed by its entry.
UniProt Q03468: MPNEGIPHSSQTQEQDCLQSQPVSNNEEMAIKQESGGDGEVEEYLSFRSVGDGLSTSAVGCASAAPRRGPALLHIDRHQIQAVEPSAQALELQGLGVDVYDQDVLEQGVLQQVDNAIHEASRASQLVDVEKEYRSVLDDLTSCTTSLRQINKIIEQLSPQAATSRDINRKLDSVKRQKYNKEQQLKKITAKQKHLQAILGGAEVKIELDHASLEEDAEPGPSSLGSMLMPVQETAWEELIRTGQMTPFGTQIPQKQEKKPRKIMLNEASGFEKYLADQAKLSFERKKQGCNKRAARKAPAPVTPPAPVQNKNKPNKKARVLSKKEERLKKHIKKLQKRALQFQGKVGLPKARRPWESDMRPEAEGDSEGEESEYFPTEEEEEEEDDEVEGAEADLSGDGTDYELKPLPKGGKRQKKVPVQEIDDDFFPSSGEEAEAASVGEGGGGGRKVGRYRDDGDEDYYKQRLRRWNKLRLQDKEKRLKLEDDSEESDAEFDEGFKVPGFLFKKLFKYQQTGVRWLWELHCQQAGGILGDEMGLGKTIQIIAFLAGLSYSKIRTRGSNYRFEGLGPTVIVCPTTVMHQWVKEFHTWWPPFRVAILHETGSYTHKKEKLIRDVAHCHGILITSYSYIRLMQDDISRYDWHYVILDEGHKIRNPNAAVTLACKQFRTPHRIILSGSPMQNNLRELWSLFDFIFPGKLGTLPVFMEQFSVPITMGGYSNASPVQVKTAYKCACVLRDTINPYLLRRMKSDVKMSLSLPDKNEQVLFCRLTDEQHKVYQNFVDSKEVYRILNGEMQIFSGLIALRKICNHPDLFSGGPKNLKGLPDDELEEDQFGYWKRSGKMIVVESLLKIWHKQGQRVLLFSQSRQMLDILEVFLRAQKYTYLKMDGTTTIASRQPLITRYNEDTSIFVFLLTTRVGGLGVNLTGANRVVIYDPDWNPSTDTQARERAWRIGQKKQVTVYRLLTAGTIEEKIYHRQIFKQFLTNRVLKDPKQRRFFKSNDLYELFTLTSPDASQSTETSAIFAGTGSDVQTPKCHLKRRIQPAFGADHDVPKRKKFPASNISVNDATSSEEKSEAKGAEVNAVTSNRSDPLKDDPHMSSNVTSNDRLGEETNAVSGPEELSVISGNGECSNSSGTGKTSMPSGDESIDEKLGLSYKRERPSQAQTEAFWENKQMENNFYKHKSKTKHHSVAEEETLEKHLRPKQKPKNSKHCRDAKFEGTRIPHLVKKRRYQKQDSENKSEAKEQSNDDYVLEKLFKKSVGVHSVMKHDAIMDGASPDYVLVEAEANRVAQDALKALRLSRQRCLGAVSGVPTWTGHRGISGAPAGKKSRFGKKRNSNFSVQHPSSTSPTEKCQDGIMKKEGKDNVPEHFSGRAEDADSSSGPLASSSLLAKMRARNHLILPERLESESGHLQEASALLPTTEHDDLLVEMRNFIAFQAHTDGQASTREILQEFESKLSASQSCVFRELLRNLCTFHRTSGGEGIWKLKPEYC
UniProt O60884: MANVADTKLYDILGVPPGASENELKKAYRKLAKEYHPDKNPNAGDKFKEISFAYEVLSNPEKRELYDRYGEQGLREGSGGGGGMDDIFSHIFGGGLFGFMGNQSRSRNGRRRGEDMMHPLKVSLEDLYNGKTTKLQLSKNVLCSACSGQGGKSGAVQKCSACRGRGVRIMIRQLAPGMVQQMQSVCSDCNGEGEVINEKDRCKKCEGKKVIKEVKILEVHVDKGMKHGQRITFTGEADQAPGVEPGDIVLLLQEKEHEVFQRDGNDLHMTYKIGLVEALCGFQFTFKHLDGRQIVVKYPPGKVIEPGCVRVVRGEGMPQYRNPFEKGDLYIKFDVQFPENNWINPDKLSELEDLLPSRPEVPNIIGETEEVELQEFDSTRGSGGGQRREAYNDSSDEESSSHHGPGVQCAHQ
UniProt P11142: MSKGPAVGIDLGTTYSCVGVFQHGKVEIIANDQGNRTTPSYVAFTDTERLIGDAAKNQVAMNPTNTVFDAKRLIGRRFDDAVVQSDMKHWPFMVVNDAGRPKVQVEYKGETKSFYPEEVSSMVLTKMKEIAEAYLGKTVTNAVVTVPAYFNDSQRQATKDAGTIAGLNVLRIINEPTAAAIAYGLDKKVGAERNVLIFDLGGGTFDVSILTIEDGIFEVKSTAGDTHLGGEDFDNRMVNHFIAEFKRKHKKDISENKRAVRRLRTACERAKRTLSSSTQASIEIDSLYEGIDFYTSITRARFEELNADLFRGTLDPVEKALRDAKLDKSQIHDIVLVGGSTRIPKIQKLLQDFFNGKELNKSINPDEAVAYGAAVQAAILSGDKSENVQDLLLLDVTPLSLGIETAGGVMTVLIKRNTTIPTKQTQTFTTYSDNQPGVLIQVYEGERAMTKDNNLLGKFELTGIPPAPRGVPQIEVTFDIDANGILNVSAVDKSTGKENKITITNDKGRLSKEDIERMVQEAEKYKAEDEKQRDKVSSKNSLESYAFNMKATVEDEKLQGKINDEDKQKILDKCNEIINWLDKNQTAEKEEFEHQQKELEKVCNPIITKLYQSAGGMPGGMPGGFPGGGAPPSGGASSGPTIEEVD

Row | Substance | binding [1] | binding [2] | binding [3] | binding [4] | binding [5] | binding [6]
1 | DNAJA2 (heat shock protein, HSP40 family), endogenous in HeLa cells (from UniProt O60884 1-412) | binds | binds | binds | binds weakly | – | –
2 | HSC70 (71 kDa heat shock cognate protein), endogenous in HeLa cells (from UniProt P11142 1-646) | binds | binds | binds | binds weakly | no binding | binds
